Results taken from ChEMBL document CHEMBL4888484, “Replenishing the malaria drug discovery pipeline: Screening and hit evaluation of the MMV Hit Generation Library 1 (HGL1) against asexual blood stage Plasmodium falciparum ,using a nano luciferase reporter read-out” (2022).
Among all 150,000 compounds or so, about 540 (0.36%) showed an effect of 50% or more. Some of the results follow.

These compounds were tested on Plasmodium falciparum (assay: Primary screen in NF54 nanoGlo assay, in single point, at 2uM, 72h; a lower Z score goes with more inhibition). Settings: timepoint 72 hour.
Assay type: functional, Erythrocyte

| Compound | % Inhibition [%] | Z score |
| --- | --- | --- |
| Cc1c[nH]c(CN(C)C(=O)C[C@@H](c2cccc(O)c2)c2ccccc2Cl)n1 | -5 | 0.97 |
| CN1c2cc(C(=O)NC3CCCCC3)ccc2C(=O)N2CCC[C@@H]21 | 6 | -0.83 |
| Cn1c(-c2c(-c3ccccc3)ncn2CCOCCO)cc2ccccc21 | -12 | 1.38 |
| Cc1ccc(NC(=O)Cn2ccc3ccc(-c4nnc(C)o4)cc32)cc1 | -3 | 0.31 |
| COc1cc(Cl)c(CN(C)Cc2noc(C3CC3)n2)c(OC)c1 | -11 | 1.62 |
| CCCCNCc1cccn1CCN1CCOCC1 | -1 | 0.09 |
| CC(C)C1(CNC(=O)c2ccc3nc(C(F)(F)F)cn3c2)CC1 | -4 | 0.65 |
| COc1ccc(CNC(=O)c2c[nH]c3ccc(F)cc3c2=O)cc1 | 0 | -0.05 |
| Cc1nc(CCNc2ccnc(C(F)(F)F)n2)sc1C | -8 | 1.06 |
| O=C(CN1CCCCC1)N1CCO[C@@H](CCCc2ccccc2)C1 | 2 | -0.35 |
| Cc1c(Cl)ccc2c(C(=O)NC[C@H]3CCCO3)cc(-c3cccs3)nc12 | -1 | 0.13 |
| COc1cccc(-c2nnc(NC(=O)Cc3cccs3)o2)c1 | -11 | 1.41 |
| CC(C)(C)OC(=O)N1CCC(C(=O)NCC2CCCC2)(C(=O)NCC2CCCC2)C1 | -8 | 0.8 |
| CC(=O)N1CCc2cc(CNC(=O)NCc3ccccc3)ccc21 | -4 | 0.69 |
| O=C(Nc1ccc2c(c1)OCO2)c1cc[nH]n1 | 10 | -1.55 |
| CC1CN(C(=O)c2coc(C(N)=O)c2)C1 | -5 | 0.74 |
| O=C1OCCCN1c1ccc(-c2noc([C@@H]3CCCO3)n2)cc1 | 9 | -1.22 |
| CCc1nnc(CN(C)C[C@H]2CCN(CC)C2)o1 | 3 | -0.56 |
| CC(=O)c1ccc(OCc2ncnn2CC(C)C)c(Cl)c1 | -19 | 1.9 |
| CCN1CCN(Cc2nc(-c3ccccc3)cs2)[C@H]2CS(=O)(=O)C[C@H]21 | -12 | 1.29 |
| CN1CCN(c2nc3c(c(N4CCCC4)n2)CN(C(=O)c2ccc(C(F)(F)F)cc2)CC3)CC1 | -11 | 1.28 |

| Compound | % Inhibition [%] | Z score |
| --- | --- | --- |
| Cc1ncncc1C(=O)N1CCC[C@@]2(CCC(=O)N(CCc3ccccn3)C2)C1 | 2 | -0.21 |
| O=C(CCNc1ccc(F)cn1)N1CCCCCC1 | 27 | -3.92 |
| Cc1oc(C)c(C(=O)Nc2nc(-c3ccc4c(c3)OCCO4)cs2)c1Cl | -4 | 0.79 |
| COc1cccc(N2CCN(C(=O)c3cccc(F)c3)[C@@H](C)C2=O)c1 | -26 | 2.28 |
| COCc1nc(C(=O)OCC2CCC2)cs1 | 0 | -0.01 |
| Nc1c(-c2ccccc2)nc2n1CCCC2 | -3 | 0.44 |
| Cc1ccc(OC2Cc3ccccc3C2N)nn1 (stereo not drawn) | -5 | 0.69 |
| C[C@@H](COCC(F)(F)F)NC(=O)NCc1ncnn1C | -9 | 1.01 |
| CCCC(=O)N1CCCC[C@H]1C(=O)N1CC(n2cc(-c3ccc(OCC)cc3)nn2)C1 | -6 | 1.12 |
| CC1CC(C)CN(C(=O)CC(C)(C)CC(=O)Nc2ccc(F)cc2)C1 (stereo not drawn) | -7 | 1.06 |
| C[C@H](NC(=O)c1cnc2ccccc2n1)C(=O)N1CCS(=O)(=O)CC1 | -17 | 1.8 |
| CN1CCC(n2nccc2NC(=O)c2cc(-c3ccccc3)on2)CC1 | 3 | -0.65 |
| CNC(=O)CCN(C)S(=O)(=O)c1cc(F)ccc1NCCO | -7 | 0.88 |
| COc1ccc(OC)c(-c2nccn2-c2ccc3nc(C)[nH]c3c2)c1 | -5 | 0.58 |
| Cc1cccc(CNS(=O)(=O)C2CON(C)C2c2ccc(OCc3ccccc3)cc2)c1 (stereo not drawn) | -8 | 1.48 |
| Cc1ccc(-c2ccccc2CN2CCN3C(=O)CNC(=O)[C@@H]3C2)o1 | -7 | 1.3 |
| CCN(CC)CCn1c2ccccc2n2cc(-c3ccc(F)cc3)nc12 | 6 | -0.5 |
| COc1cccc(N2CCN(C(=O)C3(C)CC4CC4C3)CC2)c1 (stereo not drawn) | 27 | -3.69 |
| CC(C)S(=O)(=O)N1CC[C@H](Cc2nnc(-c3ccccc3)o2)C1 | -5 | 0.67 |
| O=C(NS(=O)(=O)C1CCC(C(F)(F)F)CC1)c1cncc(Cl)c1 (stereo not drawn) | 9 | -1.21 |
| COCc1c(C(=O)N2CCN(c3cc(C)ccc3C)CC2)c(=O)cc(C)n1CCCc1ccccc1 | 4 | -0.43 |

| Compound | % Inhibition [%] | Z score |
| --- | --- | --- |
| O=C(Nc1cccc2ccccc12)N1CCC[C@H](C2OCCO2)C1 | 2 | -0.29 |
| Cc1n[nH]c2c1CCCN2Cc1nc(C(C)(C)C)no1 | -17 | 2.25 |
| N#Cc1ccc(O)c(-c2ccc(CN3CCOCC3)cc2)c1 | 28 | -3.13 |
| CC(=O)Oc1ccc(N2C(=O)[C@@H]3[C@H](Cc4ccccc4)N[C@]4(C(=O)Nc5c4ccc(Cl)c5C)[C@@H]3C2=O)cc1 | -4 | 0.38 |
| CC(C)c1cc(NC(=O)N(CC(F)F)C(C)C)no1 | -3 | 0.22 |
| C[C@H](NCCCN1CCN(C)CC1)c1c(F)cccc1Cl | -15 | 2.06 |
| Cc1cc(C)n(NC(=O)CCn2nc(C(F)(F)F)c(Br)c2C2CC2)c(=O)c1 | 34 | -0.45 |
| O=C([C@H]1CC(=O)N(C2CCOCC2)C1)N1CCCc2ccccc21 | -12 | 1.79 |
| Cc1ccc(Cl)cc1NC(=O)c1nnn(CC(=O)NCCc2ccc(Cl)cc2)c1C | 30 | -3.39 |
| Cc1ccc(C)c(NC(=O)N(C)CCc2noc(C(=O)NCc3ccc4c(c3)OCO4)n2)c1 | -9 | 0.79 |
| CS(=O)(=O)N1C2CCC1CC(NC(=O)c1ccc3c(c1)OCO3)C2 (stereo not drawn) | -16 | 2 |
| COC[C@](C)(CC(=O)O)NC(=O)c1scnc1C | -9 | 1.55 |
| CCOC1CCCC1Nc1ccc(N(C)C)cc1C (stereo not drawn) | -5 | 1.05 |
| Cc1ccc(S(=O)(=O)N2CCC[C@H](CNC(=O)c3cc(C)n(C)n3)C2)cc1C | -29 | 2.54 |
| Fc1cnccc1CN1CC[C@H](n2cc(COCc3ccccc3)nn2)C1 | -13 | 1.87 |
| CC(Nc1ncccn1)C1CN(Cc2ccccc2)CCO1 (stereo not drawn) | -4 | 0.32 |
| COc1ccc(F)c(CN2CCC[C@@]3(CCN(C(=O)c4cc(C)ccc4O)C3)C2)c1 | -11 | 1.26 |
| Cc1c(Br)c(C(=O)NC(C)(C)C(C)(C)CO)nn1C | 1 | -0.13 |
| CC1(C)CN(C(=O)Cn2ccc3cnccc3c2=O)CCO1 | 6 | -0.8 |
| NC(=O)[C@@H]1C[C@@H](F)CN1C(=O)Cc1ccc(F)cc1F | -9 | 1.28 |
| CN1CCO[C@H](c2noc(Cc3ccc(F)cc3)n2)C1 | -6 | 0.91 |

| Compound | % Inhibition [%] | Z score |
| --- | --- | --- |
| c1cnc(-n2cnc3ccccc32)c(CNCc2ccc3c(c2)CCO3)c1 | 4 | -0.86 |
| C1CCN(c2nc(N3CCCCC3)nc(N3CCCCC3)n2)CC1 | -4 | 0.57 |
| COc1ccc(-c2noc(N(C)CC(=O)Nc3ccc(Oc4ccccc4)cc3)n2)cc1 | -5 | 0.91 |
| Cc1cc(F)ccc1S(=O)(=O)N1CCC[C@H](Cc2nc(-c3ccccc3F)no2)C1 | -10 | 1.96 |
| CN(CCc1ccccc1)C[C@@H]1OC[C@H](NC(=O)Nc2cccnc2)[C@H]1O | 16 | -1.86 |
| CCNC(=O)c1ccc(N(C)CCC(F)(F)F)nn1 | -11 | 1.72 |
| Cc1ccccc1NS(=O)(=O)c1ccc2c(c1)CC(C)(C)OC2 | -1 | 0.26 |
| CNc1ccccc1C(=O)N1CCO[C@H]2CCC[C@H]21 | 8 | -1.56 |
| Cn1cc2ncn([C@H](c3nccn3C)C3CC3)c(=O)c2n1 | 3 | -0.65 |
| COC[C@H]1CCCN1S(=O)(=O)NC(C)(C)CN1CCOCC1 | -12 | 2.34 |
| COCC(=O)N[C@@H]1CC[C@@]2(OC)CCN(C(=O)Cc3ccsc3)[C@H]2C1 | -10 | 1.14 |
| O=C(N[C@H]1CCNC[C@@H]1O)c1cccc(-c2ccc3c(c2)OC(F)(F)O3)c1 | -16 | 1.84 |
| COc1cccc2c1CCN(C(=O)Cn1cnc3c1CCNC31CCOCC1)C2 | -2 | 0.3 |
| O=S(=O)(Cc1ccccc1)Nc1ccc(C#Cc2ccccc2)cc1 | 7 | -0.86 |
| Cc1ccc(F)c(-c2cc(NC(=O)[C@@H]3COCCN3C)[nH]n2)c1 | -11 | 1.8 |
| CCN(CC)C(=O)c1cnc2nc(C)ccc2c1Nc1cccc(C(F)(F)F)c1 | -6 | 0.97 |
| Cc1cc(NC(=O)c2c(C)sc3ncnc(N4CCCC4)c23)ccc1F | 33 | -0.61 |
| Cc1ncsc1CCC(=O)Nc1ccccc1N1C(=O)N[C@@H](C)C1=O | -7 | 1.03 |
| COc1ccc(N2CCN(C(=O)c3csc(C(C)(C)C)n3)CC2)nc1 | -16 | 1.58 |
| Cc1cc(NC(=O)N2CCC=C(F)C2)ccc1-n1nnnc1C(C)C | -11 | 1.19 |
| CC(C)c1ccc(CN2CCC[C@@]3(CCN(c4ncccn4)C3)C2=O)cc1 | -11 | 1.4 |
